Experimental data as given in article PMC4336329 (PLoS ONE, 2015).
The whole screen tested about 310,000 compounds, of which about 14,000 (4.5%) showed an effect of 50% or more. Effects have a minus sign here. This is one part of the list.

Each compound was assayed against human ether-à-go-go-related gene (hERG) potassium channel (human, UniProt Q12809) (assay: primary screen, population patch clamp on CHO cells stably expressing hERG).
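Note: peak tail current of the secondary pulse compared with the same well before compound.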

human ether-à-go-go-related gene (hERG) potassium channel, sequence (Q12809 whole entry, looked up): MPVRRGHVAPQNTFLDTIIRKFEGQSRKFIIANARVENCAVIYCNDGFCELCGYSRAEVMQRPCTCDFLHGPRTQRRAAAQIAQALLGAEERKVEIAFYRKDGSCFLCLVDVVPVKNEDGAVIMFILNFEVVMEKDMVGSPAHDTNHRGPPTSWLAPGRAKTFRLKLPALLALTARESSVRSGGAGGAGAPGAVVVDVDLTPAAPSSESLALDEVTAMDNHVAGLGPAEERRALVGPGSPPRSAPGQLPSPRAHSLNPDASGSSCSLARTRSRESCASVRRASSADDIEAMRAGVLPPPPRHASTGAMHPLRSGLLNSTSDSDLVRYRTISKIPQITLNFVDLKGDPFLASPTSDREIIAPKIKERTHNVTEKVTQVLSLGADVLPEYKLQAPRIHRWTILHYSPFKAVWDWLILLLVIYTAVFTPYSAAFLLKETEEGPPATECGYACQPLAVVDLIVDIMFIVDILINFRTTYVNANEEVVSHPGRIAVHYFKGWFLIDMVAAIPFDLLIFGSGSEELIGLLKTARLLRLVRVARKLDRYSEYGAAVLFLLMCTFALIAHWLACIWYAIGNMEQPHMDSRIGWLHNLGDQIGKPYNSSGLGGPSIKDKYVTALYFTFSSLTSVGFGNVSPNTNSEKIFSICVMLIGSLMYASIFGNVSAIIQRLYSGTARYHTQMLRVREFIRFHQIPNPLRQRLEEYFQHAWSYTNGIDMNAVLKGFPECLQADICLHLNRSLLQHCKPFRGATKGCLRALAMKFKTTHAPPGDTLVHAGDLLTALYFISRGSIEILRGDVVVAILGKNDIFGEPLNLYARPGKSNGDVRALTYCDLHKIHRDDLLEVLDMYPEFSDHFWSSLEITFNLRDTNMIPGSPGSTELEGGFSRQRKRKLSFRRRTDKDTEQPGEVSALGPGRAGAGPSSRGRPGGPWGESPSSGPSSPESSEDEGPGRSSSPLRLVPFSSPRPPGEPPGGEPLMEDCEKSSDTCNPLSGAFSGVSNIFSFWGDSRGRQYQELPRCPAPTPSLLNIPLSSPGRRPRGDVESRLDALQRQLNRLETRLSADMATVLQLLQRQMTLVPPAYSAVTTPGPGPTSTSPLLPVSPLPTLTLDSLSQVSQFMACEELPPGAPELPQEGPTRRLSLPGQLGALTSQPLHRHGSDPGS

Compound | hERG current change (%, negative = inhibition) at 10uM [%]
CC(C)[C@H](NC(=O)[C@@H]1Cc2ccccc2CN1)C(=O)Nc1ccc2c(c1)OCCO2 | -30.2
CCN(CC)CC(=O)Nc1sc(C)cc1C(=O)c1ccc(C)cc1 | -2.07
O=C(CNC(=O)Cc1cccc2ccccc12)NCc1ccc(F)cc1 | 2.87
CCOC(=O)C1(CCCc2ccccc2)CCN(C(=O)CN2CCOC2=O)CC1 | 6.35
Oc1oc(-c2ccccc2)nc1/C=N/c1ccccn1 | 8.56
COc1ccc(S(=O)(=O)NC2CC(=O)N(c3ccc(C)c(C)c3)C2)cc1C (stereo not shown) | -9.62
COc1ccc(Cl)cc1C(=O)C1CCCN(Cc2cnc(N3CCOCC3)s2)C1 (stereo not shown) | -57.6
CCCS(=O)(=O)N1CCN(C(=O)CCC2CCCC2)CC1 | -5.88
COc1cc2c(cc1OC)-c1nnc(-c3cccs3)n1C1(CCCC1)C2 | -16.8
NC1=NC(=O)C(Cc2ccccc2)S1 (stereo not shown) | 2.01
CCn1cc(/C=C(\NC(=O)c2ccccc2F)C(=O)N2CCCC2)c2ccccc21 | -16.2
CCc1nnc(NC(=O)C2COc3ccccc3O2)s1 (stereo not shown) | -0.739
CC1(C)C(C(=O)NN2C(=O)c3ccccc3C2=O)C1(C)C | 12.2
C=CCn1c(SCC(N)=O)nc2scc(-c3ccc(C)o3)c2c1=O | -3.83
COc1ccc(/C=C\c2nc(O)c([N+](=O)[O-])c(=O)[nH]2)cc1O | 5.88
CCOC(=O)c1c(S(=O)(=O)NCC(=O)NCc2ccccc2Cl)c(C)n(C)c1C | -47.4
CC12CC(NC(=O)N1Cc1ccccc1)c1ccccc1O2 (stereo not shown) | -6.03
O=C(c1cccc(S(=O)(=O)N2CCCCC2)c1)N1CCOCC1 | 10.2
CCCCCCNC(=O)c1cccc(-c2ccc(C)c3ccccc23)n1 | 0.747
Cc1nc(NC(=O)c2ccco2)sc1-c1csc(Nc2ccc(Cl)cc2)n1 | 14.1
Cc1c(CNC2CCCC(C)C2C)c(C(=O)O)c(C)n1Cc1ccccc1 (stereo not shown) | -3.24
Cc1cccc(NC(=S)N/N=C/c2ccc([N+](=O)[O-])s2)c1 | 8.4

Compound | hERG current change (%, negative = inhibition) at 10uM [%]
CS(=O)(=O)N(Cc1ccco1)CC(O)Cn1cc(C=O)c2ccccc21 (stereo not shown) | 0.402
COCCOC(=O)c1[nH]c2c(c1C)C(=O)CC(c1ccco1)C2 (stereo not shown) | -5.52
CC1CCN(CCC(=O)Nc2ccc(F)c(F)c2)CC1 | -26.6
Cc1ccc(S(=O)(=O)NCC(=O)OCC(=O)N(C)C2CCS(=O)(=O)C2)cc1 (stereo not shown) | 8.47
CC(Oc1ccc(C(=O)NC2CCCCC2)cc1)C(=O)O (stereo not shown) | 12.3
O=C1c2ccccc2C(=O)N1CCCCSc1nnc2ccccn12 | -22.7
NC(=O)c1ccc(-n2nnnc2SCC(=O)Nc2ccc(F)cc2)cc1 | 21.4
COC(=O)c1cc(C(=O)OC)cc(N2C(=O)CC(Sc3nc(C)cc(C)n3)C2=O)c1 (stereo not shown) | -13.6
CC1CCCN(S(=O)(=O)c2ccc([N+](=O)[O-])cc2)C1 (stereo not shown) | 7.9
COC(=O)C1=C(c2ccc(F)cc2F)C[C@@H]2CC[C@H]1N2C(=O)NCc1ccco1 | 2.23
CC(c1ccccc1)N(NC(=O)C(O)(c1ccccc1)c1ccccc1)C(=O)c1ccccc1 (stereo not shown) | -4.24
O=C(CSC1=NC(=O)C(c2ccccc2)C(=O)N1)Nc1ccccc1Cl (stereo not shown) | 12.7
CC(=O)Nc1c(NCC(C)C)c2ccccc2oc1=O | 16.7
CC(C)NC(=NCc1ccc(Cl)cc1Cl)Nc1ccccc1 | -53
O=C(c1ccccc1Br)N1N=C(c2ccccc2)CC1c1ccccc1F (stereo not shown) | 15.7
O=c1[nH]c(=S)[nH]c(O)c1N=Nc1ccc2c(c1)OCCO2 | 18.2
CC(C)(C)c1ccc(NC(=S)NCCc2ccccn2)cc1 | 5.62
O=C(/C=C/c1cc([N+](=O)[O-])ccc1OC(F)F)Nc1cccc([N+](=O)[O-])c1 | 1.95
CCOC(=O)CC1=C(C(=O)OCC)C(c2ccc(OC)c(OC)c2)C(C#N)=C(N)O1 (stereo not shown) | -12.8
COc1ccccc1C(=O)C1CCCN(C(=O)c2ccc(C(C)=O)s2)C1 (stereo not shown) | -3.02
O=C(NCC1CCCO1)c1nn2c(C(F)(F)F)cc(-c3cccs3)nc2c1Br (stereo not shown) | -6.14
O=C(N/N=C/c1ccc2nccnc2c1)c1ccccc1O | -1.86

Compound | hERG current change (%, negative = inhibition) at 10uM [%]
COC(=O)/C=C1\S/C(=N/NC(=O)c2ccccc2)NC1=O | 11.1
Cc1ccc(Cl)cc1N1CCN(C(=O)Cn2ccc3ccccc3c2=O)CC1 | -8.08
COc1cc(NC(=O)CN2C(=O)COc3ccc(S(=O)(=O)N4CCOCC4)cc32)cc(OC)c1 | 17.5
COc1ccc(C2=CC3=C(Br)C(=O)C(C)(O)C(=O)C3=CO2)cc1 (stereo not shown) | 11.9
Cc1cc(OCC(=O)N(C)C2CCCCC2)cc(C)c1Cl | -0.813
CCOC(=O)c1ccc2nc(C)c(CC)c(Cl)c2c1 | 10.3
Cn1ncc2c(Nc3ccccc3Cl)nc(Nc3ccccc3Cl)nc21 | 15.5
COc1ccccc1CNC(=S)Nc1cc(C)ccc1C | 5.52
O=C(O)CSc1c[nH]c2ccccc12 | 14
COc1ccc(-n2nc(C(=O)NCC(=O)NCCCN3CCN(C)CC3)c3ccccc3c2=O)cc1 | 12.5
CCc1c(C#N)sc(C(N)=O)c1CC | 13.3
OCCN(CCO)c1ccc(C(c2ccccc2Cl)c2ccc(N(CCO)CCO)cc2Cl)c(Cl)c1 | -30
Cc1ccc(C2NC(=O)c3ccccc3N2)s1 (stereo not shown) | -0.319
O=C(CCCOc1ccccc1)Nc1ccccc1C(F)(F)F | -6.98
Nc1c(C(=O)N/N=C/c2cccnc2)oc2nc(-c3ccccc3)cc(-c3ccco3)c12 | 22.3
CC1(C)CC(=O)c2cc(OCC(=O)NCCN3CCOCC3)ccc2O1 | 22.7
CCOc1cc(C(=O)CCC(=O)OCC(=O)Nc2ccc(C)c(S(=O)(=O)N(C)C)c2)ccc1O | -32.7
COc1ccc(-c2ccccc2NC(=O)C2CCCN(Cc3ccc(C)o3)C2)cc1 (stereo not shown) | -37.2
c1ccc2c(CSCc3nc4ccccc4[nH]3)cccc2c1 | -15.3
CC1=CN2C(=N)/C(=C\c3cn(CCCOc4ccccc4)c4ccccc34)C(=O)N=C2S1 | -3.08
O=C(O)c1ccc(NC(=O)c2cccs2)cc1 | 10.1
CC1CCCN(C(=O)C2CCN(Cc3ccc4c(c3)OCO4)CC2)C1.O=C(O)C(=O)O (stereo not shown) | -0.604

Compound | hERG current change (%, negative = inhibition) at 10uM [%]
Cn1cc(CCC(=O)NC2CC2)c2ccccc21 | 3.32
Cc1ccc2c(c1)N(CC(=O)N1CCOCC1)C(=O)C(C)O2 (stereo not shown) | 17.6
CC(C)[C@H]1COC(NC2=N[C@@H](C(C)C)CO2)=N1 | 0.625
COc1ccc(NS(=O)(=O)c2cccc(C(=O)NNC(=O)CNC(=O)c3ccccc3F)c2)cc1 | -5.59
CC(Oc1ccccc1)C(=O)NC1CCSc2ccccc21 (stereo not shown) | -15
CCc1nc2ccc(C(=O)NCCc3ccc(OC)cc3)cc2nc1CC | 3.21
Cc1cccc(C)c1NC(=O)NC1(C(=O)N2CCCC2)CCCCC1 | 20.3
O=C(CNC(=O)c1ccc(Br)cc1)NC1CC1 | -0.987
COc1ccc(C(=O)Nc2cccc(-c3nc4ncccc4o3)c2C)cc1 | -4.81
Cc1c(N/C=C/C(=O)c2ccc(Cl)cc2)c(=O)n(-c2ccccc2)n1C | -24.2
O=C(OCc1nnc(-c2ccccc2)o1)C1CCN(S(=O)(=O)c2cccs2)CC1 | -18.1
CCn1c(COc2cccc3ccccc23)nnc1SCC(N)=O | 12.6
C/C(=N\NC(=O)c1ccncc1)c1ccc(N(C)C)cc1 | 15.5
CCCCC1=CC2=CC(=O)C(C)(OC(=O)c3ccco3)C(=O)C2=CO1 (stereo not shown) | 0.553
CCN(CC)C(=O)C1CCC(C)(C(=O)O)C1(C)C (stereo not shown) | 3.91
O=C(CSc1nnnn1-c1ccc(O)cc1)Nc1cccc(S(=O)(=O)N2CCCC2)c1 | -16.1
Cn1c(C(=O)N2CCCC(C(=O)NCc3ccc4c(c3)OCO4)C2)cc2sccc21 (stereo not shown) | -45.3
CCOC(=O)Cc1csc(NC(=O)c2sc3nc4cc(C)ccc4cc3c2N)n1 | -6.55
CCOC(=O)c1cc(C)sc1NC(=O)CN1CCN(C(=O)c2ccco2)CC1 | -72.8
Cc1ccc(S(=O)(=O)NC(=O)c2cc(C)n(CCCN3CCOCC3)c2C)cc1 | 13.7
COc1ccc(CCN(C)Cc2ccncc2)cc1OC | -27.2
Cc1cccc(N2CCN(S(=O)(=O)c3ccc4c(c3)CCN4C(=O)CCC(=O)O)CC2)c1C | -1.59
